Data as given in the supplement of paper PMC8728848.
The list shows a part of the results.

Tests used:
Assay in all cases: glycan array binding signal (z-score within array); higher = stronger binding
Details in all cases: glycan notation: IUPAC condensed, linker removed
[1] = target: Fuc(a1-2)Gal(b1-4)GlcNAc(b1-3)Gal(b1-4)GlcNAc(b1-2)Man(a1-3)[Fuc(a1-2)Gal(b1-4)GlcNAc(b1-3)Gal(b1-4)GlcNAc(b1-2)Man(a1-6)]Man(b1-4)GlcNAc(b1-4)GlcNAc
Procedure, shortened: (§1)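 Glycan array data came from 3228 arrays in the Consortium for Functional Glycomics database, and only arrays with an available protein sequence were kept. Glycan names were put into IUPAC-condensed notation, and columns mapping to the same glycan were averaged. The binding signal is a within-array Z-score, averaged across arrays of one protein sequence run at different concentrations or buffers and across linkers. A negative Z-score can be read as non-binding.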

[2] = target: Fuc(a1-2)Gal(b1-4)GlcNAc(b1-3)Gal(b1-4)GlcNAc(b1-3)Gal(b1-4)GlcNAc
Procedure, shortened: as §1

[3] = target: Fuc(a1-2)Gal(b1-4)GlcNAc(b1-3)GalNAc
Procedure, shortened: as §1

[4] = target: Fuc(a1-2)Gal(b1-4)GlcNAc(b1-3)[Fuc(a1-2)Gal(b1-4)GlcNAc(b1-6)]GalNAc
Procedure, shortened: as §1

[5] = target: Fuc(a1-2)Gal(b1-4)GlcNAc(b1-3)[Fuc(a1-3)[Gal(b1-4)]GlcNAc(b1-6)]Gal(b1-4)Glc
Procedure, shortened: as §1

[6] = target: Fuc(a1-2)Gal(b1-4)GlcNAc(b1-6)GalNAc
Procedure, shortened: as §1

[7] = target: Fuc(a1-2)Gal(b1-4)GlcNAc6S
Procedure, shortened: as §1

[8] = target: Fuc(a1-2)Gal(b1-4)[Fuc(a1-3)]GlcNAc
Procedure, shortened: as §1

[9] = target: Fuc(a1-2)Gal(b1-4)[Fuc(a1-3)]GlcNAc(b1-2)Man(a1-3)[Fuc(a1-2)Gal(b1-4)[Fuc(a1-3)]GlcNAc(b1-2)Man(a1-6)]Man(b1-4)GlcNAc(b1-4)[Fuc(a1-6)]GlcNAc
Procedure, shortened: as §1

[10] = target: Fuc(a1-2)Gal(b1-4)[Fuc(a1-3)]GlcNAc(b1-2)[Fuc(a1-2)Gal(b1-4)[Fuc(a1-3)]GlcNAc(b1-4)]Man(a1-3)[Fuc(a1-2)Gal(b1-4)[Fuc(a1-3)]GlcNAc(b1-2)Man(a1-6)]Man(b1-4)GlcNAc(b1-4)GlcNAc
Procedure, shortened: as §1

[11] = target: Fuc(a1-2)Gal(b1-4)[Fuc(a1-3)]GlcNAc(b1-3)Gal(b1-4)[Fuc(a1-3)]GlcNAc
Procedure, shortened: as §1

[12] = target: Fuc(a1-2)Gal(b1-4)[Fuc(a1-3)]GlcNAc(b1-3)Gal(b1-4)[Fuc(a1-3)]GlcNAc(b1-3)Gal(b1-4)[Fuc(a1-3)]GlcNAc
Procedure, shortened: as §1

[13] = target: Fuc(a1-2)Gal(b1-4)[Fuc(a1-3)]GlcNAc(b1-3)GalNAc
Procedure, shortened: as §1

[14] = target: Fuc(a1-2)Gal(b1-4)[Fuc(a1-3)]GlcNAc(b1-3)[Neu5Ac(a2-6)Gal(b1-4)GlcNAc(b1-6)]Gal(b1-4)Glc
Procedure, shortened: as §1

[15] = target: Fuc(a1-2)Gal3S(b1-4)GlcNAc
Procedure, shortened: as §1

[16] = target: Fuc(a1-2)Gal6S(b1-3)GlcNAc
Procedure, shortened: as §1

[17] = target: Fuc(a1-2)Gal6S(b1-3)GlcNAc6S
Procedure, shortened: as §1

Fuc(a1-2)Gal6S(b1-4)Glc = target: Fuc(a1-2)Gal6S(b1-4)Glc
Procedure, shortened: as §1

[18] = target: Fuc(a1-2)Gal6S(b1-4)Glc6S
Procedure, shortened: as §1

Fuc(a1-2)GlcNAc = target: Fuc(a1-2)GlcNAc
Procedure, shortened: as §1

Fuc(a1-2)[Gal(a1-3)]Gal = target: Fuc(a1-2)[Gal(a1-3)]Gal
Procedure, shortened: as §1

[19] = target: Fuc(a1-2)[Gal(a1-3)]Gal(b1-3)GalNAc
Procedure, shortened: as §1

[20] = target: Fuc(a1-2)[Gal(a1-3)]Gal(b1-3)GalNAc(b1-3)Gal(a1-4)Gal(b1-4)Glc
Procedure, shortened: as §1

[21] = target: Fuc(a1-2)[Gal(a1-3)]Gal(b1-3)GlcNAc
Procedure, shortened: as §1

[22] = target: Fuc(a1-2)[Gal(a1-3)]Gal(b1-3)GlcNAc(b1-2)Man(a1-3)[Fuc(a1-2)[Gal(a1-3)]Gal(b1-3)GlcNAc(b1-2)Man(a1-6)]Man(b1-4)GlcNAc(b1-4)GlcNAc
Procedure, shortened: as §1

[23] = target: Fuc(a1-2)[Gal(a1-3)]Gal(b1-3)GlcNAc(b1-2)Man(a1-3)[Fuc(a1-2)[Gal(a1-3)]Gal(b1-3)GlcNAc(b1-2)Man(a1-6)]Man(b1-4)GlcNAc(b1-4)[Fuc(a1-6)]GlcNAc
Procedure, shortened: as §1

[24] = target: Fuc(a1-2)[Gal(a1-3)]Gal(b1-3)GlcNAc(b1-3)GalNAc
Procedure, shortened: as §1

[25] = target: Fuc(a1-2)[Gal(a1-3)]Gal(b1-3)GlcNAc(b1-6)GalNAc
Procedure, shortened: as §1

[26] = target: Fuc(a1-2)[Gal(a1-3)]Gal(b1-4)Glc
Procedure, shortened: as §1

[27] = target: Fuc(a1-2)[Gal(a1-3)]Gal(b1-4)GlcNAc
Procedure, shortened: as §1

[28] = target: Fuc(a1-2)[Gal(a1-3)]Gal(b1-4)GlcNAc(b1-2)Man
Procedure, shortened: as §1

[29] = target: Fuc(a1-2)[Gal(a1-3)]Gal(b1-4)GlcNAc(b1-2)Man(a1-3)[Fuc(a1-2)[Gal(a1-3)]Gal(b1-4)GlcNAc(b1-2)Man(a1-6)]Man(b1-4)GlcNAc(b1-4)GlcNAc
Procedure, shortened: as §1

[30] = target: Fuc(a1-2)[Gal(a1-3)]Gal(b1-4)GlcNAc(b1-2)Man(a1-3)[Fuc(a1-2)[Gal(a1-3)]Gal(b1-4)GlcNAc(b1-2)Man(a1-6)]Man(b1-4)GlcNAc(b1-4)[Fuc(a1-6)]GlcNAc
Procedure, shortened: as §1

[31] = target: Fuc(a1-2)[Gal(a1-3)]Gal(b1-4)GlcNAc(b1-3)GalNAc
Procedure, shortened: as §1

[32] = target: Fuc(a1-2)[Gal(a1-3)]Gal(b1-4)GlcNAc(b1-6)GalNAc
Procedure, shortened: as §1

[33] = target: Fuc(a1-2)[Gal(a1-3)]Gal(b1-4)[Fuc(a1-3)]Glc
Procedure, shortened: as §1

[34] = target: Fuc(a1-2)[Gal(a1-3)]Gal(b1-4)[Fuc(a1-3)]GlcNAc
Procedure, shortened: as §1

[35] = target: Fuc(a1-2)[Gal(a1-3)]Gal(b1-4)[Fuc(a1-3)]GlcNAc(b1-3)GalNAc
Procedure, shortened: as §1

[36] = target: Fuc(a1-2)[Gal(a1-4)]Gal(b1-4)GlcNAc
Procedure, shortened: as §1

[37] = target: Fuc(a1-2)[GalNAc(a1-3)]Gal
Procedure, shortened: as §1

[38] = target: Fuc(a1-2)[GalNAc(a1-3)]Gal(b1-3)GalNAc(a1-3)[Fuc(a1-2)]Gal(b1-4)GlcNAc
Procedure, shortened: as §1

[39] = target: Fuc(a1-2)[GalNAc(a1-3)]Gal(b1-3)GalNAc(b1-3)Gal(a1-4)Gal(b1-4)Glc
Procedure, shortened: as §1

[40] = target: Fuc(a1-2)[GalNAc(a1-3)]Gal(b1-3)GlcNAc
Procedure, shortened: as §1

[41] = target: Fuc(a1-2)[GalNAc(a1-3)]Gal(b1-3)GlcNAc(b1-2)Man(a1-3)[Fuc(a1-2)[GalNAc(a1-3)]Gal(b1-3)GlcNAc(b1-2)Man(a1-6)]Man(b1-4)GlcNAc(b1-4)GlcNAc
Procedure, shortened: as §1

[42] = target: Fuc(a1-2)[GalNAc(a1-3)]Gal(b1-3)GlcNAc(b1-2)Man(a1-3)[Fuc(a1-2)[GalNAc(a1-3)]Gal(b1-3)GlcNAc(b1-2)Man(a1-6)]Man(b1-4)GlcNAc(b1-4)[Fuc(a1-6)]GlcNAc
Procedure, shortened: as §1

B1: HHA (Hippeastrum hybrid) (protein)
chain: MQQDCNLVLYDVDKPIWASNTGGLARDCHLNMQSDGNLVVYAPRNQVIWASNTQGENGNYVCILQKDRNVVIYGTARWATGTNIHGAGIVGVPGSAPQNTTAEMIKLVRKYLITK
[1]
  glycan array binding signal (z-score): -0.182
[2]
  glycan array binding signal (z-score): -0.183
[3]
  glycan array binding signal (z-score): -0.037
[4]
  glycan array binding signal (z-score): -0.2
[5]
  glycan array binding signal (z-score): -0.21
[6]
  glycan array binding signal (z-score): -0.184
[7]
  glycan array binding signal (z-score): -0.207
[8]
  glycan array binding signal (z-score): -0.216
[9]
  glycan array binding signal (z-score): -0.172
[10]
  glycan array binding signal (z-score): -0.152
[11]
  glycan array binding signal (z-score): -0.22
[12]
  glycan array binding signal (z-score): -0.19
[13]
  glycan array binding signal (z-score): -0.127
[14]
  glycan array binding signal (z-score): -0.216
[15]
  glycan array binding signal (z-score): -0.217
[16]
  glycan array binding signal (z-score): -0.212
[17]
  glycan array binding signal (z-score): -0.169
Fuc(a1-2)Gal6S(b1-4)Glc
  glycan array binding signal (z-score): -0.204
[18]
  glycan array binding signal (z-score): -0.207
Fuc(a1-2)GlcNAc
  glycan array binding signal (z-score): -0.25
Fuc(a1-2)[Gal(a1-3)]Gal
  glycan array binding signal (z-score): -0.2
[19]
  glycan array binding signal (z-score): -0.211
[20]
  glycan array binding signal (z-score): -0.209
[21]
  glycan array binding signal (z-score): -0.197
[22]
  glycan array binding signal (z-score): 0.004
[23]
  glycan array binding signal (z-score): 0.663
[24]
  glycan array binding signal (z-score): -0.194
[25]
  glycan array binding signal (z-score): -0.204
[26]
  glycan array binding signal (z-score): -0.207
[27]
  glycan array binding signal (z-score): -0.211
[28]
  glycan array binding signal (z-score): -0.207
[29]
  glycan array binding signal (z-score): -0.112
[30]
  glycan array binding signal (z-score): 0.204
[31]
  glycan array binding signal (z-score): 0.244
[32]
  glycan array binding signal (z-score): -0.212
[33]
  glycan array binding signal (z-score): -0.208
[34]
  glycan array binding signal (z-score): -0.202
[35]
  glycan array binding signal (z-score): -0.077
[36]
  glycan array binding signal (z-score): -0.2
[37]
  glycan array binding signal (z-score): -0.21
[38]
  glycan array binding signal (z-score): -0.208
[39]
  glycan array binding signal (z-score): -0.213
[40]
  glycan array binding signal (z-score): -0.212
[41]
  glycan array binding signal (z-score): -0.123
[42]
  glycan array binding signal (z-score): 0.519
